# Test results reported in patent US20210221875A1 (Chugai, published 2021).
# Legend:
# Native rabbit aggrecan = target: T1, Native rabbit aggrecan (rabbit); assay: ELISA, native rabbit aggrecan coated at 10 nM, A450 of antigen well / non-coated well
# T1 construct: crude cartilage extract supernatant; also called native rabbit aggrecan extracted from cartilage
# [1] = target: T2, Human aggrecan G1-IGD-G2 domain with Flag-tag on its C-terminus (human, UniProt P16112 fragment); assay: ELISA, biotin-labeled antigen on streptavidin plate, A450 of antigen well / non-coated well
# T2 construct: used unlabelled as Biacore analyte; also called human aggrecan G1-IGD-G2-Flag; human Aggrecan G1G2 flag
# [2] = target: T3, biotin-rabbit aggrecan G1-IGD-G2-3xFlag (rabbit, UniProt Q28670 fragment, biotin on the N-terminal Avi-tag (BirA co-expression)); assay: as above
# T3 construct: three tandem Flag-tags at the C-terminus and Avi-tag at the N-terminus; also called biotinylated Avi-rabbit aggrecan G1-IGD-G2-3xFLAG; Avi RbG1G2 3FLAG
# [3] = target: T3, biotin-rabbit aggrecan G1-IGD-G2-3xFlag; assay: SPR (Biacore T200), 37 C, pH 7.4, antibody captured, Avi RbG1G2 3Flag as analyte, 1:1 model;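 note: antibodies captured at roughly 200 RU on a CM4 or C1 chip through anti-human IgG Fc or Protein A/G, in sodium phosphate NaCl buffer with Tween 20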
Binder,S/N ratio (Native rabbit aggrecan),S/N ratio [1],S/N ratio [2],Kd [3] [nM],koff [3] [s⁻¹],kon [3] [M⁻¹ s⁻¹]
"oA2R2#027un-G1T3dCH1dC (Fc fusion, anti-aggrecan VHH with Fc region) QVQLVESGGGSGQPGGSLRLSCAASGFDLDYYAVGWFRQAPGKEREAVSCISVSGANISYVDSVKGRFTISRDNAKRTVDLSLDSLKPEDTAVYYCATTWGIHWCPLNPSDYRRWGRGTQVTVSS[left out - human IgG1 Fc with C220S Q419E (EU numbers)]",2.39,33,37.8,,,
"oA2R2#041un-G1T3dCH1dC (Fc fusion, anti-aggrecan VHH with Fc region) QVQLVESGGGSGQSGGSLTLSCAASGFDLDYYAVGWFRQAPGKEREGVACTSVSGANISYVDSVKGRFTIYRDNVKKTVELSLDSLKPEDTAVYYCATTWGIHWCPLIASEYRRWGRGTQVTVSS[left out - human IgG1 Fc with C220S Q419E (EU numbers)]",5.17,29.9,34.3,763,0.0187,24500
"hA2R1p.004-G1T3dCH1dCallohu (Fc fusion, anti-aggrecan VHH fused with a heavy chain constant region (Fc region)) QLQLVESGGGSGQPGGSLKLSCAASGFDLDYFAVGWFRQAPGKEREGVSCISVSGANISYADSVKGRFTIFRDSAKRTVDLSLDALKPEDTAVYYCATTWGIHWCPLSASEYRRWGRGTQVTVSLEPKTPKPQAAA[left out - human IgG1 Fc with C220S Q419E (EU numbers)]",,42.7,52.5,,,
"oA2R1p.014-G1T3dCH1dCallohu (Fc fusion, anti-aggrecan VHH with Fc region) QLQLVESGGGSGQPGGSLRLSCAASGFDLDYYAVGWFRQAPGKEREGIACTSVSGANTTYVDTVKGRFTISRDNAKRTVDLSLDSLKPEDTAVYYCATTWGIHWCPLSASEYRRWGRGTQVTVSLEPKTPKPQAAA[left out - human IgG1 Fc with C220S Q419E (EU numbers)]",,47.6,52.9,,,
"hA2R3p.038-G1T3dCH1dCallohu (Fc fusion, anti-aggrecan VHH with Fc region) QLQLVESGGGLVQAGGSLRLSCAASGRTFRTYAMGWFRQAPGKEREFVSSISGSGGSKIYADSVKGRFTISRDNAKDTVNLQMNSLKPEDTAVYYCAVARGYYGTMASDPGLYDYWGQGTQVTVSSEPKTPKPQAAA[left out - human IgG1 Fc with C220S Q419E (EU numbers)]",,29.9,4.5,,,
